Test results published in patent US11090319B2, “Therapeutic uses of pharmaceutical compositions comprising cyclic boronic acid ester derivatives” (Melinta Subsidiary Corp., priority 2010, dated 2021).
≈ marks a conversion by molar mass, not a printed value. Where two headings read alike, the source gives them in different places.

System: strains expressing serine carbapemenases (such as KPC)
Assay: organism not typed
Details: biapenem alone

## C[C@@H](O)[C@H]1C(=O)N2C(C(=O)[O-])=C(SC3Cn4cnc[n+]4C3)[C@H](C)[C@H]12 (stereo partly shown) [Biapenem]
read-out: Biapenem MIC, strain EC1007 KPC-3
  MIC: 4 µg/mL (≈ 11.4 µM)
read-out: Biapenem MIC, strain ECL1004 NMC-A
  MIC: 8 µg/mL (≈ 22.8 µM)
read-out: Biapenem MIC, strain KP1004 KPC-2
  MIC: > 8 µg/mL
read-out: Biapenem MIC, strain KP1008 KPC-2
  MIC: 8 µg/mL (≈ 22.8 µM)
